From the supplement of paper PMC3334620
Over roughly 33,000 sequences, “E-score (-0.5 to 0.5)” has its median near -0.016; the highest 2% begin near 0.32. This is one part of the list.

The sequences below were run against T1, Stp1 (UniProt B3LFK1) (assay: PBM E-score (8-mer binding enrichment) (E-score (-0.5 to 0.5)); higher = stronger / more preferred TF binding; most listed sequences are background and not binding sites). Settings: protein concentration: 200 nM; construct: GST-full length.
T1 sequence: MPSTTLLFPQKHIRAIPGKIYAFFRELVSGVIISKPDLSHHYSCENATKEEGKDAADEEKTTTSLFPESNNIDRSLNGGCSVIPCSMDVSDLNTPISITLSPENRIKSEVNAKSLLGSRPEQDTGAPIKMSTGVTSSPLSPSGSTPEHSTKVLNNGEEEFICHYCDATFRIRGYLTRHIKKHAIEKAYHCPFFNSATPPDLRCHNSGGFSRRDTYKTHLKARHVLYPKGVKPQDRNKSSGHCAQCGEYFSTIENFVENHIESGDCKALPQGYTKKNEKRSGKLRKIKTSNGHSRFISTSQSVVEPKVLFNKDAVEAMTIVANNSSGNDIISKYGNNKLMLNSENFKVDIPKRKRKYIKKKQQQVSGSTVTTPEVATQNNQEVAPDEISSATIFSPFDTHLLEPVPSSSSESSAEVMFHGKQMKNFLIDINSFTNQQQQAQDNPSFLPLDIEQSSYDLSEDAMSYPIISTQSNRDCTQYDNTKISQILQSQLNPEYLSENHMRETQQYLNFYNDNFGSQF
Outline: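 GST-tagged yeast TFs (full-length or DNA-binding domain) were made by PURExpress in vitro transcription/translation and applied at about 100-200 nM to universal all-10-mer Agilent arrays. The arrays were made double-stranded by primer extension, on fresh or once-stripped slides. Bound protein was detected with fluorescent anti-GST, and scans were normalised with masliner. Each ungapped eight-base word, pooled with its reverse complement, received an E-score (modified Wilcoxon-Mann-Whitney statistic) from the Universal PBM Analysis Suite.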

Sequence | PBM E-score
ATGTCACG | 0.0791
AAGACGAG | -0.0698
ATTATAAA | 0.178
CCTAGCGA | -0.201
GAGGTTGA | -0.0562
CGGTTAAA | 0.1
ACTGCATC | 0.0192
GAGTACGC | -0.0795
GCAGAGAC | -0.185
TTGAGCAA | -0.0145
TACCGAGA | -0.114
CAGACCAC | -0.108
GACTCAGA | -0.0935
AATTTGAC | 0.0587
AAGCCCCG | -0.0486
CGACAAAA | 0.102
ACCACCGA | 0.102
CAACCCAG | -0.182
CTGGACAA | -0.12
CCTCCTGC | -0.205
CGCATTAA | 0.144
AACCTTGG | -0.148
ACCATCTC | -0.0267
CCCTCACA | -0.194
AGAGGACC | -0.297

Sequence | PBM E-score
CTTTTGGA | 0.0549
TCAATAAA | 0.144
CCGATACC | 0.0333
TCCAGAGA | -0.171
TCTGCCCA | -0.0964
AGTGCGAT | -0.0927
GGTTCAGA | -0.0328
GGTTTTGA | 0.14
TATTCGCA | 0.0691
CGAACAAA | 0.211
CTTTTCGA | 0.174
GTATCGAA | 0.136
AGTATCGC | 0.0252
CTTCACGA | -0.234
AAAGAACT | 0.0844
GCATGGTA | -0.0343
CCATATGA | -0.0232
ATAGAGGC | 0.121
ATTCAGGA | 0.0535
TCTCTAAA | -0.0775
GCTCGAAA | 0.123
ATTGTTCG | 0.261
GCACGCCA | 0.0857
CAACCGAG | -0.0298
GCGGCGCC | 0.484

Sequence | PBM E-score
ATCTCCTG | 0.0188
CAGCGAAG | -0.0904
GACCTCAA | -0.00129
CCCACCGC | -0.0654
CTAGGGAG | -0.329
TGGTCCAA | -0.102
GAAAGCAA | 0.196
ACACGATA | 0.0591
AGGTAGGA | -0.164
GACCTAAA | 0.0476
AACGTCGT | -0.148
GTGTAGTA | -0.146
CTGGCTGA | -0.0718
AGCGTACG | -0.0361
AGGGTCAT | -0.233
AACCCCGA | -0.19
TGAGCGAA | 0.0336
GGGCCCCC | -0.324
ACCTTAGC | -0.174
CCGTAAGA | -0.0261
CTAGAACA | 0.0505
CTCAAAGC | 0.052
CCCACCAA | -0.0761
AAGGCCCT | 0.0902
ATTAATAG | 0.169

Sequence | PBM E-score
AGTCGCAA | 0.0442
AGATCCAG | 0.0493
ATCAGTTC | -0.0252
AATCGCGT | -0.0848
CTCCACTA | -0.118
GAGAGCTC | -0.302
TCACCTAA | 0.0322
GAATGTGA | -0.0936
CATTCGCA | -0.0378
AGTTGGAA | 0.155
AATCGGTA | -0.0507
AATTATGT | 0.138
AAACGTCG | -0.00841
AGAAGAGC | 0.102
CCGAATCG | 0.108
AGACCACA | -0.08
ACTACGCG | 0.175
GAACTGGC | -0.0549
ATAGGGGC | -0.277
GCAGTGGC | 0.167
CACCAGTA | 0.0127
ACCGTTCC | 0.15
CCGTGAGC | 0.0383
AGAGACGA | -0.0255
CGATCGTC | 0.104

Sequence | PBM E-score
CCACAGTC | -0.328
CAGCGTAA | 0.0467
AAACATAT | 0.267
CATTACAA | 0.094
AAACTGGA | -0.0976
CAGTATGG | 0.0561
TCAACCGA | 0.179
CAAGGCTC | 0.0922
CGAGCATA | -0.188
GTAACTGA | 0.0678
CCCGTCCC | -0.249
GTTGTGGA | -0.0929
CGAAAAAC | 0.0494
GGATGCAA | -0.138
AAGTGCCA | 0.163
CACGTCTA | 0.00453
GGTTATAC | 0.0428
CACTGCTC | 0.0609
CGGTGCGC | 0.0602
AGTTCTTA | -0.0969
CTATACAG | -0.0681
CGCACGAG | -0.0435
AGGTCTGG | -0.233
AAGACACT | 0.108
CGCGAGCG | -0.0583

Sequence | PBM E-score
ATGAGAAT | 0.146
ATATACCC | -0.0183
GACATACC | 0.0342
ACACTCGG | -0.0366
GCTGGGAC | -0.228
ATACACTG | 0.0725
GTATGAAC | -0.0343
AATCACTG | 0.212
AATCCGTA | 0.115
GCACCCTA | 0.0122
AATCTTTC | -0.0966
AGTAGGAG | -0.154
GGGGTAAA | 0.0519
AGAAGGTG | -0.079
CCGCTAGA | -0.236
CTGGATGA | -0.0786
GGGACTGA | -0.262
AGAAAGCT | -0.0881
TCAGATAA | 0.101
ACGCCCAG | 0.0946
CCGCACCC | 0.293
CGCCGACC | 0.0509
AGGCATCA | 0.215
CGAAGAGA | -0.00011
AGGAAGCG | -0.0555

Sequence | PBM E-score
ACGGACCT | 0.0506
GGCGGGCA | 0.0418
AACAGTCC | -0.215
AGATCGCA | -0.0911
AGTACGAA | 0.152
TAGTCGAA | 0.0218
CAGTGGAC | -0.116
ATGCCTCA | 0.279
CGGAGCAG | -0.104
GCTGGCGA | -0.0672
GTAGTAGA | 0.0861
CAACAACA | 0.166
TATATGCA | 0.0222
CGCCAGCA | -0.163
ACGATACT | -0.0701
ATGCGTAG | -0.0597
CCTGCATC | -0.0268
AATGCCAG | -0.0782
ATTATAGC | -0.0736
CTACATAC | 0.039
CGGCGAGA | 0.325
ATGCCACC | -0.029
